# According to PubChem BioAssay AID1745853 (National Center for Advancing Translational Sciences (NCATS), 2022):
# Several values for one entry are separate records, joined by “and”; a condition that tells them apart may be missing. Equal entries are not always repeated. The list shows a part of the results. These are further read-outs of the screen, such as a control signal, another cell line or another target. No call is given for them.
# Experiments:
# Test in all cases: Primary Screen for Target Class Profiling of Small Molecule Inhibitors of Methyltransferases
# [1] = target: Glycine N-methyltransferase (Homo sapiens) (UniProt Q14749); details: purified enzyme, MTase-Glo SAH luminescence; measured here: GNMT inhibition; at 40 µM; stronger effect = lower value
# How it was run: (§1)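 Each enzyme was assayed with SAM and its substrate. SAH formation detected by MTase-Glo luminescence; single-point 40 uM screen[…].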
# [2] = target: Guanidinoacetate N-methyltransferase (Homo sapiens) (UniProt Q14353); details: purified enzyme, MTase-Glo SAH luminescence; measured here: GAMT inhibition; at 40 µM; stronger effect = lower value
# How it was run: as §1
# [3] = target: Histamine N-methyltransferase (Homo sapiens) (UniProt P50135); details: purified enzyme, MTase-Glo SAH luminescence; measured here: HNMT inhibition; at 40 µM; stronger effect = lower value
# How it was run: as §1
# [4] = target: Nicotinamide N-methyltransferase (Homo sapiens) (UniProt P40261); details: purified enzyme, MTase-Glo SAH luminescence; measured here: NNMT inhibition; at 40 µM; stronger effect = lower value
# How it was run: as §1
# [5] = target: Phenylethanolamine N-methyltransferase (Homo sapiens) (UniProt P11086); details: purified enzyme, MTase-Glo SAH luminescence; measured here: PNMT inhibition; at 40 µM; stronger effect = lower value
# How it was run: as §1
# % is set by controls: 0 for no effect and ±100 for the full control effect.
Compound,"activity change, negative = inhibition [1]","activity change, negative = inhibition [2]","activity change, negative = inhibition [3]","activity change, negative = inhibition [4]","activity change, negative = inhibition [5]"
C[C@]1(O)CC[C@@H]2C(C(=O)O)=CO[C@@H](O[C@@H]3O[C@H](COC(=O)c4ccc(O)cc4)[C@@H](O)[C@H](O)[C@H]3O)[C@@H]21,5.58%,6.89%,12.6%,-5.91%,6.13%
Cc1ccc(CN2CCCCCCNC(=O)[C@@H]3C[C@@H](C(=O)NCCc4cnc[nH]4)C[C@@H]32)o1,-13%,-10.9%,-7.17%,-17.4%,-13.2%
CC1CCCCC1NC(=O)C1(C)Cn2c(cc3occc32)C(=O)N1CCN(C)C1CCCCC1 (stereo not given),4.37%,1.73%,5.84%,2.65%,0.217%
Fc1ccc(-n2cc(CCCCN3CCC4(CC3)OCc3ccccc34)c3ccccc32)cc1,-2.73%,-0.427%,-0.064%,-22.8%,-6.63%
C/C=C/C=C/c1cc2c(C=O)c(O)c(CC=C(C)C)cc2o1,-16%,-18.5%,1.41%,-29.5%,-2.42%
CC1=CCC[C@@H]2[C@](CCc3ccoc3)(C(=O)O)[C@H](C)CC[C@@]12C,-1.22%,4.31%,6.31%,-11.6%,0.583%
CCCn1c(=O)c2ccc(C(=O)NC3CCCC3)cc2n2c(=O)n(CC(=O)Nc3ccccc3)nc12,-0.017%,0%,5.48%,3%,3.21%
CCN1CCC(N2CCC3(CC2)CC2C(=O)N(CC)C(=O)N2C3)CC1 (stereo not given),-3.99%,-2.16%,-1.98%,-0.996%,12.5%
C[C@@H]1O[C@@H](OC[C@H]2O[C@@H](OCCc3ccccc3)[C@H](O)[C@@H](O)[C@@H]2O)[C@H](O)[C@H](O)[C@H]1O,0%,2.62%,0.152%,-11%,4.07%
COc1cc(C/C(=C/NC(C)=O)N(CC(=O)Cc2ccccc2)C(C)=O)cc2c1OCO2,-0.301%,-6.13%,-1.17%,-24.7%,-0.142%
COc1cccc(OCCCN)c1-c1cc(Nc2cnc(C#N)cn2)n[nH]1,-0.106%,10.7%,0.481%,-7.17%,-12%
COC(=O)c1cc2n(n1)CC(C)(C(=O)NC1CCCCCC1)N(Cc1ccccc1Cl)C2=O (stereo not given),1.08%,0%,2.62%,-1.98%,0.587%
Cn1c(=O)c2ccc(C(=O)NC3CCCCC3)cc2n2c(=O)n(Cc3ccc(F)cc3Cl)nc12,7.08%,0%,13.5%,5.82%,6.61%
Cc1noc(C)c1S(=O)(=O)N1CC(C(=O)NC2CCCCC2)C2(CCOCC2)C1 (stereo not given),-1.3%,2.91%,1.97%,1.7%,2.48%
CC(C)CCN1C(=O)c2ccc(-c3ccco3)n2CC1(C)C(=O)NC1CCCCC1C (stereo not given),-0.569%,2.95%,7.01%,-3.79%,-1.03%
CC(C)CCNc1ncccc1C(=O)N1CCN(Cc2ccccc2)CC1,-3.5%,-13.1%,6.16%,-30.6%,-7.02%
COc1ccccc1N1CCN(CCN2C(=O)CC3(CCCC3)CC2=O)CC1,2.13% and 2.68%,6.46% and 8.38%,11% and 4.27%,-8.73% and -4.21%,4.55% and 6.92%
CC1CCC(NC(=O)C2(C)Cn3c(cc4occc43)C(=O)N2CCN2CCCCCC2)CC1 (stereo not given),2.67%,1.72%,-1.64%,2.43%,0.556%
O=C(CCc1nnc2n(Cc3ccc(F)cc3)c(=O)c3ccccc3n12)NC1CCN(Cc2ccccc2)CC1,0.823%,0.375%,-8.37%,3.49%,0.202%

Compound,"activity change, negative = inhibition [1]","activity change, negative = inhibition [2]","activity change, negative = inhibition [3]","activity change, negative = inhibition [4]","activity change, negative = inhibition [5]"
CC(C)CNC(=O)c1ccc2c(=O)n(C)c3nn(Cc4ccccc4F)c(=O)n3c2c1,-7.79%,0%,1.67%,-3.69%,1.79%
CN1Cc2sccc2C(c2ccc(O)c(O)c2)C1 (stereo not given),-31.8%,14%,-0.715%,-3.45%,2.52%
CCc1nccn1Cc1nnc(C2CC(N)C2)n1CCOC (stereo not given),-5.42%,-9.51%,-4.17%,-14.7%,-10.7%
CN1C(=O)c2cc(C(=O)NCCCN3CCOCC3)nn2CC1(C)C(=O)NCc1ccccc1 (stereo not given),1.91%,4.08%,-2.9%,2.62%,-0.384%
O=C(NC1CCCCC1)[C@@H]1C[C@@H](O)CN1C1CCN(C(=O)c2ccccc2F)CC1,-7.98%,-8.87%,-4.62%,-11.8%,-8.87%
O=C(NCCNC(=O)c1ccccc1F)c1ccc(-c2cncnc2)cc1,-5.6%,-3.62%,-4.14%,-12.5%,-5.87%
CC1OC(OC2C(C)OC(OC3C(OC(=O)C45CCC(C)(C)CC4C4=CCC6C7(C)CCC(OC8OC(C(=O)O)C(O)C(O)C8OC8OC(CO)C(O)C(OC9OC(C)C(O)C(O)C9O)C8O)C(C)(CO)C7CCC6(C)C4(C)CC5)OC(CO)C(O)C3O)C(O)C2O)C(O)C(O)C1O (stereo not given),3.19%,-1.36%,8.13%,-12.2%,-6.01%
CC1(C(=O)NC2CCCCCC2)Cn2c(cc3sccc32)C(=O)N1c1ccc(Cl)cc1 (stereo not given),0.822%,0%,3.38%,4.99%,-2.35%
Cc1cc(Nc2nc(NC(C)c3ncc(F)cn3)ncc2Cl)n[nH]1 (stereo not given),-12.1%,1.95%,3.79%,-15.7%,3.39%
CCN1c2cc(C(=O)NCc3ccncc3)ccc2C(=O)N2CCCCC21 (stereo not given),-11.6%,-1.4%,-3.61%,-4.62%,0.53%
OCC(O)CN1CCN(c2ccccc2)CC1 (stereo not given),0.085%,0.89%,8.5%,-11.4%,2.73%
Cc1ccc(CNC(=O)C2(C)Cn3cnc(C(=O)NCc4cccc(C)c4)c3C(=O)N2C2CC2)cc1 (stereo not given),-4.51%,-2.79%,0.354%,-8.7%,-3.63%
Cc1cc(C(=O)NC[C@@H]2OC[C@@]3(C)[C@H]4CC[C@@H](O)[C@@H](CC(=O)N5CCCC5)[C@]4(C)CC[C@H]3O2)no1,-0.809%,-0.526%,-2.17%,-3.4%,-1.78%
CC1(C(=O)NC2CCCCC2)Cn2c(nc3ccccc32)C(=O)N1CCc1ccc(Cl)cc1 (stereo not given),6.83%,0%,8.22%,8.73%,3.13%
COc1ccc(OC)c(S(=O)(=O)N2CCCN(C)c3ccccc32)c1,-14.6%,-4.23%,-4.81%,-18.7%,-13.5%
COc1ccc(-n2[nH]c3c(cnc4ccccc43)c2=O)cc1,-6.51%,-3.43%,-30.3%,-18.4%,-0.857%
COCCN1CC2(CCCN(Cc3cc(C(C)(C)C)n[nH]3)C2)CCC1=O (stereo not given),-3.82%,-3.94%,-1.46%,-6.11%,-4.54%
O[C@@H](COc1cccc2ncccc12)CN1CCN(C2c3ccccc3[C@@H]3[C@H](c4ccccc42)C3(F)F)CC1 (stereo not given in full),6.98%,-12%,6.53%,-45.6%,-14%
C[C@@H]1CN(C(=O)c2ccc(-c3ccn[nH]3)cc2)CC[C@@]1(O)C1CCOCC1,-5.06%,-7.25%,-3.14%,-4%,10.5%

Compound,"activity change, negative = inhibition [1]","activity change, negative = inhibition [2]","activity change, negative = inhibition [3]","activity change, negative = inhibition [4]","activity change, negative = inhibition [5]"
Cc1ccc(CCN2C(=O)c3cc4ccccc4n3CC2(C)C(=O)NC2CCCC2)cc1 (stereo not given),4.83%,7.62%,7.34%,6.22%,3.48%
O=C(NCc1cccnc1)c1ccc2c(=O)nc3c(-c4ccc(Cl)cc4)n[nH]n3c2c1,-11.2%,-0.431%,1.94%,1.03%,-2.73%
C[C@H](NC(=O)/C(C#N)=C/c1ccc(O)c(O)c1)c1ccccc1,-20.6%,2.86%,-1.31%,-43.3%,9.9%
CC(C)CCn1c(=O)c2ccc(C(=O)NC3CCCCC3)cc2n2c(=O)n(CC(N)=O)nc12,-2.99%,-1.21%,-1.12%,-3.39%,-4.04%
Cc1ncc2n1C(=O)N(C1CCN(C(=O)NC3CCCC3)CC1)C2,-6.47%,-9.6%,-3.09%,-20.7%,-11.3%
CNC(=O)c1[nH]nc2c1C(c1cc(OC)ccc1-n1cccn1)CC(=O)N2 (stereo not given),-4.28%,1.06%,1.27%,-0.665%,-3.71%
O=C(N[C@@H]1CN(C(=O)Nc2ccc(F)cc2)CCC[C@H]1O)c1ccc(OCCN2CCCC2)cc1,-3.96%,-5.86%,-5.89%,-7.74%,-6.05%
COc1cc2nc(N3CCN(C(=O)c4ccco4)C4CCCCC43)nc(N)c2cc1OC (stereo not given),-68%,-22.1%,-40.1%,-49.6%,-7.66%
CCCn1c(=O)c2ccc(C(=O)NC3CCCCC3)cc2n2c(=O)n(CC(=O)NC(C)C)nc12,10.9%,3%,13.3%,10.1%,7.26%
Cc1ccc(N2C(=O)c3ccc(-c4ccco4)n3CC2(C)C(=O)NCc2ccccc2)cc1 (stereo not given),-11.2%,4.47%,2.07%,-1.87%,-3.15%
Cn1c(=O)c2ccc(C(=O)NC3CCCCC3)cc2n2c(SCc3cccc(F)c3)nnc12,-1.34%,4.6%,1.04%,-0.096%,0.703%
O=C(O)/C=C/c1ccc(-c2ccc(O)c(C34CC5CC(CC(C5)C3)C4)c2)cc1,-58.6%,2.08%,-2.9%,-88.8%,-49.8%
CN1CCCC2(C1)CN(C)c1ccc(C(=O)NCC3CCCCC3)cc12 (stereo not given),-4.31%,-4%,-82.6%,-13.9%,-0.546%
CCN(CC)c1ccc(NS(=O)(=O)c2ccc3[nH]c4c(c3c2)CCCC4)c(C)c1,4.49%,-6.54%,-1.87%,-5.47%,-0.969%
CC(=O)Nc1c2n(c3ccccc13)CC(C)(C(=O)NC1CCCC1)N(Cc1ccco1)C2=O (stereo not given),-4.97%,-0.374%,2.25%,3.23%,1.85%
CC(C)(C)c1cc(/C=C(\C#N)C(N)=S)cc(C(C)(C)C)c1O,-58.9%,-14.3%,-37.9%,-20.5%,-24.3%
CC(=O)N1CC[C@]2(O)CCN(C(=O)CCCc3ccc(F)cc3)C[C@@H]2C1,-2.56%,-3.55%,-0.965%,-6.25%,-3.36%
CC(=O)O[C@@H]1[C@@H](O)[C@H](C)O[C@@H](O[C@H]2[C@@H]3C=CO[C@@H](O[C@@H]4O[C@H](CO)[C@@H](O)[C@H](O)[C@H]4OC(C)=O)[C@@H]3[C@@]3(CO)O[C@@H]23)[C@@H]1OC(=O)/C=C/c1ccc(O)cc1,0.851%,4.44%,2.39%,-8.94%,3.45%
Cc1cn2c(N)c(Cl)cc(C(=O)NCC3CCN(CC(C)C)CC3)c2n1,-14.7%,-5.9%,-16.5%,-18.1%,-10.4%
